# In the supplement of paper PMC8728848:
# Some of the results follow.
# B1: Pwp3 (Candida glabrata) (protein)
# chain: MGSSHHHHHHSSGLVPRGSHMASKNPVDFTTVCQFPDNFSKKPGFLATTARLGLWITGNSYKELLNYPGTFTLTTQQASTTTPNIQLRGTDLFTTIYGLTVYPLYLLVELQGYFVPTQSGMYTFSLTGSDDAAIIFIGNPSTFPCDAFKTWPQATANDITVTDSINPSRTLYMVKGVAYPLRIAYYNGLGNGVLNAAFTDPSGTKRTDWNGYIWQYDQCSTCTYK
# Columns and labels:
# Assay in all cases: glycan array binding signal (z-score within array); higher = stronger binding
# Settings in all cases: glycan notation: IUPAC condensed, linker removed
# [1] = target: Neu5Ac(a2-6)Gal(b1-4)GlcNAc(b1-2)Man(a1-3)[Neu5Ac(a2-3)Gal(b1-4)GlcNAc(b1-2)Man(a1-6)]Man(b1-4)GlcNAc(b1-4)GlcNAc
# How it was run: (§1)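 The binding signal is a Z-score computed within each array. Data were drawn from 3228 arrays in the Consortium for Functional Glycomics database, restricted to those with a known protein sequence. Scores were averaged over arrays of the same protein sequence at different concentrations or buffers, and over linkers, and negative values can be taken as non-binding.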
# [2] = target: Neu5Ac(a2-6)Gal(b1-4)GlcNAc(b1-2)Man(a1-3)[Neu5Ac(a2-6)Gal(b1-4)GlcNAc(b1-2)Man(a1-6)]Man(b1-4)GlcNAc(b1-4)GlcNAc
# How it was run: as §1
# [3] = target: Neu5Ac(a2-6)Gal(b1-4)GlcNAc(b1-2)Man(a1-3)[Neu5Ac(a2-6)Gal(b1-4)GlcNAc(b1-2)Man(a1-6)]Man(b1-4)GlcNAc(b1-4)[Fuc(a1-6)]GlcNAc
# How it was run: as §1
# [4] = target: Neu5Ac(a2-6)Gal(b1-4)GlcNAc(b1-2)Man(a1-6)Man(b1-4)GlcNAc(b1-4)GlcNAc
# How it was run: as §1
# [5] = target: Neu5Ac(a2-6)Gal(b1-4)GlcNAc(b1-2)Man(a1-6)[Gal(b1-4)GlcNAc(b1-2)Man(a1-3)]Man(b1-4)GlcNAc(b1-4)GlcNAc
# How it was run: as §1
# [6] = target: Neu5Ac(a2-6)Gal(b1-4)GlcNAc(b1-2)Man(a1-6)[GlcNAc(b1-2)Man(a1-3)]Man(b1-4)GlcNAc(b1-4)GlcNAc
# How it was run: as §1
# [7] = target: Neu5Ac(a2-6)Gal(b1-4)GlcNAc(b1-2)Man(a1-6)[Man(a1-3)]Man(b1-4)GlcNAc(b1-4)GlcNAc
# How it was run: as §1
# [8] = target: Neu5Ac(a2-6)Gal(b1-4)GlcNAc(b1-2)[Neu5Ac(a2-6)Gal(b1-4)GlcNAc(b1-4)]Man(a1-3)[GlcNAc(b1-4)][Neu5Ac(a2-6)Gal(b1-4)GlcNAc(b1-2)[Neu5Ac(a2-6)Gal(b1-4)GlcNAc(b1-6)]Man(a1-6)]Man(b1-4)GlcNAc(b1-4)GlcNAc
# How it was run: as §1
# [9] = target: Neu5Ac(a2-6)Gal(b1-4)GlcNAc(b1-2)[Neu5Ac(a2-6)Gal(b1-4)GlcNAc(b1-4)]Man(a1-3)[GlcNAc(b1-4)][Neu5Ac(a2-6)Gal(b1-4)GlcNAc(b1-4)Man(a1-6)]Man(b1-4)GlcNAc(b1-4)GlcNAc
# How it was run: as §1
# [10] = target: Neu5Ac(a2-6)Gal(b1-4)GlcNAc(b1-2)[Neu5Ac(a2-6)Gal(b1-4)GlcNAc(b1-6)]Man(a1-6)[Neu5Ac(a2-6)Gal(b1-4)GlcNAc(b1-2)Man(a1-3)][GlcNAc(b1-4)]Man(b1-4)GlcNAc(b1-4)GlcNAc
# How it was run: as §1
# [11] = target: Neu5Ac(a2-6)Gal(b1-4)GlcNAc(b1-3)Gal(b1-3)GlcNAc
# How it was run: as §1
# [12] = target: Neu5Ac(a2-6)Gal(b1-4)GlcNAc(b1-3)Gal(b1-4)GlcNAc
# How it was run: as §1
# [13] = target: Neu5Ac(a2-6)Gal(b1-4)GlcNAc(b1-3)Gal(b1-4)GlcNAc(b1-2)Man(a1-3)[Neu5Ac(a2-6)Gal(b1-4)GlcNAc(b1-3)Gal(b1-4)GlcNAc(b1-2)Man(a1-6)]GalNAc
# How it was run: as §1
# [14] = target: Neu5Ac(a2-6)Gal(b1-4)GlcNAc(b1-3)Gal(b1-4)GlcNAc(b1-3)Gal(b1-4)GlcNAc
# How it was run: as §1
# [15] = target: Neu5Ac(a2-6)Gal(b1-4)GlcNAc(b1-3)Gal(b1-4)GlcNAc(b1-3)Gal(b1-4)GlcNAc(b1-2)Man(a1-3)[Neu5Ac(a2-6)Gal(b1-4)GlcNAc(b1-3)Gal(b1-4)GlcNAc(b1-3)Gal(b1-4)GlcNAc(b1-2)Man(a1-6)]GalNAc
# How it was run: as §1
# [16] = target: Neu5Ac(a2-6)Gal(b1-4)GlcNAc(b1-3)Gal(b1-4)GlcNAc(b1-3)GalNAc
# How it was run: as §1
# [17] = target: Neu5Ac(a2-6)Gal(b1-4)GlcNAc(b1-3)Gal(b1-4)GlcNAc(b1-3)[Neu5Ac(a2-6)Gal(b1-4)GlcNAc(b1-3)Gal(b1-4)GlcNAc(b1-6)]GalNAc
# How it was run: as §1
# [18] = target: Neu5Ac(a2-6)Gal(b1-4)GlcNAc(b1-3)Gal(b1-4)GlcNAc(b1-6)[Gal(b1-3)]GalNAc
# How it was run: as §1
# [19] = target: Neu5Ac(a2-6)Gal(b1-4)GlcNAc(b1-3)Gal(b1-4)[Fuc(a1-3)]GlcNAc(b1-3)Gal(b1-4)[Fuc(a1-3)]GlcNAc
# How it was run: as §1
# [20] = target: Neu5Ac(a2-6)Gal(b1-4)GlcNAc(b1-3)GalNAc
# How it was run: as §1
# [21] = target: Neu5Ac(a2-6)Gal(b1-4)GlcNAc(b1-3)[Neu5Ac(a2-6)Gal(b1-4)GlcNAc(b1-6)]GalNAc
# How it was run: as §1
# [22] = target: Neu5Ac(a2-6)Gal(b1-4)GlcNAc(b1-6)GalNAc
# How it was run: as §1
# [23] = target: Neu5Ac(a2-6)Gal(b1-4)GlcNAc(b1-6)[Gal(b1-3)GlcNAc(b1-3)]Gal(b1-4)Glc
# How it was run: as §1
# [24] = target: Neu5Ac(a2-6)Gal(b1-4)GlcNAc(b1-6)[Gal(b1-3)]GalNAc
# How it was run: as §1
# [25] = target: Neu5Ac(a2-6)Gal(b1-4)GlcNAc6S
# How it was run: as §1
# Neu5Ac(a2-6)GalNAc = target: Neu5Ac(a2-6)GalNAc
# How it was run: as §1
# [26] = target: Neu5Ac(a2-6)GalNAc(b1-4)GlcNAc
# How it was run: as §1
# [27] = target: Neu5Ac(a2-6)GalNAc(b1-4)GlcNAc6S
# How it was run: as §1
# [28] = target: Neu5Ac(a2-6)GlcNAc(b1-4)GlcNAc
# How it was run: as §1
# [29] = target: Neu5Ac(a2-6)GlcNAc(b1-4)GlcNAc(b1-4)GlcNAc
# How it was run: as §1
binder,measurement,setting,value
B1,glycan array binding signal (z-score),[1],-0.141
same,glycan array binding signal (z-score),[2],-0.002
same,glycan array binding signal (z-score),[3],-0.429
same,glycan array binding signal (z-score),[4],-0.519
same,glycan array binding signal (z-score),[5],-0.713
same,glycan array binding signal (z-score),[6],-0.199
same,glycan array binding signal (z-score),[7],0.611
same,glycan array binding signal (z-score),[8],0.295
same,glycan array binding signal (z-score),[9],1.39
same,glycan array binding signal (z-score),[10],-0.03
same,glycan array binding signal (z-score),[11],-0.21
same,glycan array binding signal (z-score),[12],0.007
same,glycan array binding signal (z-score),[13],-0.213
same,glycan array binding signal (z-score),[14],-0.291
same,glycan array binding signal (z-score),[15],1.6
same,glycan array binding signal (z-score),[16],-0.326
same,glycan array binding signal (z-score),[17],-0.47
same,glycan array binding signal (z-score),[18],0.018
same,glycan array binding signal (z-score),[19],-1.24
same,glycan array binding signal (z-score),[20],-0.314
same,glycan array binding signal (z-score),[21],0.771
same,glycan array binding signal (z-score),[22],0.084
same,glycan array binding signal (z-score),[23],-0.263
same,glycan array binding signal (z-score),[24],-0.518
same,glycan array binding signal (z-score),[25],-0.208
same,glycan array binding signal (z-score),Neu5Ac(a2-6)GalNAc,-0.159
same,glycan array binding signal (z-score),[26],-0.164
same,glycan array binding signal (z-score),[27],-0.339
same,glycan array binding signal (z-score),[28],0.018
same,glycan array binding signal (z-score),[29],0.361
